Measured values: PubChem BioAssay AID2675 (National Center for Advancing Translational Sciences (NCATS), 2010)
In all, about 280,000 compounds went through this assay and about 100 (0.036%) were called active. Inconclusive means that the source gave no clear call. Such entries were picked first, then a sample of the others. Calls come from the whole dose curve; as a rule, active = well fitted inhibition curve with a large enough effect in the signal ratio, with a control signal flat (not every such curve was filed as active); inconclusive = small, poorly fitted or top-dose-only effect, or effect the other way, or a change in a side signal; inactive = no such curve, though single readings can be large or run the other way; the % refers to the signal ratio. A potency beside an inconclusive call is a rough fit, not a confirmed value. A note “side channel” means that the fit belongs to a control or component signal, not to the main read-out.

Target: Muscleblind-like protein 1 (Homo sapiens) (UniProt Q9NR56)
Chain of UniProt Q9NR56 (Q9NR56 whole entry, looked up): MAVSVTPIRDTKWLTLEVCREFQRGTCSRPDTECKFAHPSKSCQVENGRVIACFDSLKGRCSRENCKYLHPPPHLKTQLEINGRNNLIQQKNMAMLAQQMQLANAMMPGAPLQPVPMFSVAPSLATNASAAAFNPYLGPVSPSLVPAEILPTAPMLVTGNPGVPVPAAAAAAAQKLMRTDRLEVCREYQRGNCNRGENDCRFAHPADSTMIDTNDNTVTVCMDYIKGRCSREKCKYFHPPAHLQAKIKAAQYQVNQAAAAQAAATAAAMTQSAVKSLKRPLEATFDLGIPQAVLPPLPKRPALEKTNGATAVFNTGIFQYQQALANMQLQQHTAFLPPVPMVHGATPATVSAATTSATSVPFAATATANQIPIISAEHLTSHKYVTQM
Test: qHTS Assay for Inhibitors of MBNL1-poly(CUG) RNA binding
Conditions: TR-FRET MBNL1-His/biotin-(CUG)12 binding, 665/545 ratio; series mostly up to 57.5 µM
Summary of the method: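 TR-FRET between His-tagged MBNL1 and biotin-(CUG)12 RNA, detected with Tb anti-His antibody (0.055 ng/ul) and streptavidin-XL665 (5 nM), 60 min at room temperature. Compounds titrated 92 nM to 58 uM; 665/545 nm ratio normalized to buffer and complex controls.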
Potency is the fitted concentration of half-maximal effect; tags give direction and shape of the fitted curve or compound fluorescence and quenching.

**Q.** With `COCc1cc(C)[nH]c(=O)c1C#N` as the compound, how does the Potency read?
**A.** inactive

**Q.** For `Oc1ccc(Br)cc1/C=N/n1c(C2CCCCC2)n[nH]c1=S`, which Potency is on record?
**A.** inactive

**Q.** Which Potency does the source give for `O=C(N/N=C/c1cc([N+](=O)[O-])c(N2CCOCC2)cc1N1CCOCC1)c1cccnc1` here?
**A.** inconclusive: 12.6 µM [quencher, side channel, partial curve]

**Q.** For `Cc1c(NC(=O)C(C)OC(=O)/C=C/c2ccc3c(c2)OCO3)c(=O)n(-c2ccccc2)n1C` (stereo not drawn), which Potency is on record?
**A.** inconclusive: 25.1 µM [quencher, side channel, single point]

**Q.** Which Potency does the source give for `CCN(CC)S(=O)(=O)c1ccc2[nH]c(=O)cc(C(=O)Nc3ccc(C)c(S(=O)(=O)N(CC)CC)c3)c2c1` here?
**A.** inactive

**Q.** How did the Potency turn out when `Cc1ccc(S(=O)(=O)/N=C2\C=C(Nc3cccc(C(=O)O)c3)C(=O)c3ccccc32)cc1` was run?
**A.** inconclusive: 14.1 µM [quencher, side channel, partial curve]

**Q.** For `CC(=C/c1ccccc1)/C=N/n1c(C)n[nH]c1=S`, which Potency is on record?
**A.** inconclusive: 25.1 µM [quencher, side channel, partial curve]

**Q.** With `Cc1ccc(NC2=CC(=O)C(=O)c3ccccc32)cc1` as the compound, how does the Potency read?
**A.** inconclusive: 8.91 µM [quencher, side channel, partial curve]

**Q.** With `CC(=O)NC(Cc1c[nH]c2ccccc12)C(=O)OCC(=O)Nc1cc(C)on1` (stereo not drawn) as the compound, how does the Potency read?
**A.** inconclusive: 1.12 µM [quencher, side channel, full curve]

**Q.** With `O=c1[nH]c(=O)c2nnc(N/N=C/c3ccccc3F)nc2[nH]1` as the compound, how does the Potency read?
**A.** inconclusive: 15.8 µM [quencher, side channel, partial curve]

**Q.** For `c1ccn2c(c1)nc1c2nc2ccccn21`, which Potency is on record?
**A.** inconclusive: 20 µM [quencher, single point]

**Q.** How did the Potency turn out when `N/C(=N\OC(=O)Cc1ccccc1[N+](=O)[O-])c1ccccn1` was run?
**A.** inconclusive: 14.1 µM [quencher, side channel, partial curve]

**Q.** With `Cc1ccc(C(=O)Nc2nc3ccccc3c(=O)s2)cc1` as the compound, how does the Potency read?
**A.** inconclusive: 11.2 µM [fluorescent, side channel, partial curve]

**Q.** How did the Potency turn out when `CS(=O)(=O)c1sc(C#N)c2c1C(=O)CC(c1ccccc1)C2` (stereo not drawn) was run?
**A.** inconclusive: 5.62 µM [quencher, side channel, partial curve]

**Q.** For `COc1ccc(-c2ccnc(SCC(=O)c3ccc(Cl)cc3)n2)cc1`, which Potency is on record?
**A.** inconclusive: 0.316 µM [fluorescent, side channel, full curve]

**Q.** Which Potency does the source give for `O=C(NCc1ccco1)C1CCCN1C(=O)Nc1ccccc1[N+](=O)[O-]` (stereo not drawn) here?
**A.** inconclusive: 15.8 µM [quencher, side channel, partial curve]

**Q.** With `Cc1c(C(=O)N/N=C/c2ccc(N3CCOCC3)cc2)nc2ccccn12` as the compound, how does the Potency read?
**A.** inconclusive: 28.2 µM [quencher, side channel, partial curve]

**Q.** For `NC(=O)c1c(NC(=S)Nc2ccc(F)cc2)sc2c1CCCC2`, which Potency is on record?
**A.** inactive

**Q.** `COc1cc(C2Nc3cccc4cccc(c34)N2)cc(OC)c1O` was tested. Which Potency did it give?
**A.** inactive

**Q.** For `Cc1cc(C)nc(N/N=C/c2ccccc2Cl)n1`, which Potency is on record?
**A.** inconclusive: 20 µM [quencher, side channel, single point]

**Q.** For `COC(=O)CCCC1=CC2=C(c3ccccc3)C(=O)C(C)(OC(=O)C3CCCC3)C(=O)C2=CN1CC(C)C` (stereo not drawn), which Potency is on record?
**A.** inconclusive: 12.6 µM [quencher, side channel, partial curve]

**Q.** Which Potency does the source give for `Cc1noc(NS(=O)(=O)c2ccc(N/C=C\C(=O)c3ccc(Br)cc3)cc2)c1C` here?
**A.** inconclusive: 31.6 µM [quencher, side channel, partial curve]

**Q.** How did the Potency turn out when `Cc1ccc(/C=C/C(=O)c2c(C)nc3ccccn23)cc1` was run?
**A.** inconclusive: 22.4 µM [quencher, side channel, single point]

**Q.** For `CC(C)(C)NC(=O)C(Cc1ccccc1)NS(=O)(=O)c1cccc2nsnc12` (stereo not drawn), which Potency is on record?
**A.** inconclusive: 17.8 µM [quencher, side channel, partial curve]

**Q.** `O=C(N/N=C/c1cccc([N+](=O)[O-])c1)C1COc2ccccc2O1` (stereo not drawn) was tested. Which Potency did it give?
**A.** inconclusive: 2.24 µM [quencher, side channel, full curve, poor fit]

**Q.** Which Potency does the source give for `CCCC1O[C@@H]2C[C@H]3[C@@H]4CCC5=CC(=O)C=C[C@]5(C)[C@H]4[C@@H](O)C[C@]3(C)[C@]2(C(=O)CO)O1` (stereo partly drawn) here?
**A.** inactive

**Q.** With `O=C(O)c1ccc(NC2=Nc3cccc4cccc2c34)cc1` as the compound, how does the Potency read?
**A.** inconclusive: 20 µM [quencher, side channel, partial curve]

**Q.** How did the Potency turn out when `CCOc1ccc2c(c1)s/c(=N\S(=O)(=O)c1ccc(OC)cc1)n2C(F)F` was run?
**A.** inactive

**Q.** Which Potency does the source give for `COc1cccc(C(=O)C2=NN(C(C)=O)CC2c2ccco2)c1` (stereo not drawn) here?
**A.** inconclusive: 1.58 µM [quencher, side channel, full curve, poor fit]

**Q.** `CCOC(=O)COc1ccc2nsnc2c1Cl` was tested. Which Potency did it give?
**A.** inconclusive: 12.6 µM [quencher, side channel, partial curve]

**Q.** How did the Potency turn out when `O=C(c1ccccc1F)N1CCN(c2ccc([N+](=O)[O-])c(N3CCOCC3)c2)CC1` was run?
**A.** inconclusive: 25.1 µM [quencher, side channel, partial curve]

**Q.** How did the Potency turn out when `CCOC(=O)c1ccc(NC(=S)N(CCCN2CCCC2)Cc2cccs2)cc1` was run?
**A.** inactive

**Q.** With `C=CCc1cccc(/C=N/c2ncccc2O)c1O` as the compound, how does the Potency read?
**A.** inconclusive: 11.2 µM [quencher, side channel, partial curve]

**Q.** How did the Potency turn out when `COc1ccccc1N1CCN(C(c2cc3ccc(C)cc3[nH]c2=O)c2nnnn2C2CCCC2)CC1` (stereo not drawn) was run?
**A.** inconclusive: 25.1 µM [quencher, side channel, partial curve]

**Q.** How did the Potency turn out when `CN(C)/N=C/c1ccc(Sc2ccc([N+](=O)[O-])cc2[N+](=O)[O-])o1` was run?
**A.** inconclusive: 3.55 µM [quencher, side channel, partial curve]

**Q.** Which Potency does the source give for `CCOc1ccccc1N1C(=O)c2ccc(C(=O)O)cc2C1=O` here?
**A.** inconclusive: 20 µM [quencher, side channel, partial curve]

**Q.** Which Potency does the source give for `COCc1cc(=O)[nH]c(Nc2nc3ccc(C)cc3o2)n1` here?
**A.** inactive

**Q.** With `O=[N+]([O-])c1ccc(C2=NCCO2)cc1` as the compound, how does the Potency read?
**A.** inconclusive: 7.94 µM [quencher, side channel, partial curve]
